From the supplement of paper PMC4967469
By IC50 is meant the dose at which the fit gives 50% viability; a limit (>, <) means that the fit lies beyond the doses tested. AUC, from the same fit, is the share of area under the viability curve across the 256-fold dose range; the more sensitive the line, the further below 1. For some of these results: An inferred top dose was derived from the fitted curves, not read from the paper. For some of these results: An entry number marks a drug with two screens in the source, which often give different values.

Assays:
Experiment in all cases: Viability of human cancer cell lines after 72 h of drug (GDSC screen)
EX-527 = compound: NC(=O)C1CCCc2c1[nH]c1ccc(Cl)cc21 [EX-527]; conditions: top dose 20 µM
Protocol: (§1)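 Human cancer cell lines in 384-well plates, medium with 10% serum, drug for 72 h over a 256-fold dose range (nine 2-fold or five 4-fold steps up to the top dose). Adherent lines were fixed and stained with the nucleic acid dye Syto60, suspension lines read with resazurin; signal relative to control wells, capped at 0 and 100%. One two-parameter sigmoid per drug and line, fitted in a mixed model over all curves with the slope shared within a line.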

YM201636 = compound: Nc1ccc(C(=O)Nc2cccc(-c3nc(N4CCOCC4)c4oc5ncccc5c4n3)c2)cn1 [YM201636]; conditions: top dose 5.12 µM; top dose inferred
Protocol: as §1

AZD6244 = compound: Cn1cnc2c(F)c(Nc3ccc(Br)cc3Cl)c(C(=O)NOCCO)cc21 [AZD6244]; conditions: top dose 4 µM; screen: GDSC drug entry 1498; top dose inferred
Protocol: as §1

TAK-715 = compound: CCc1nc(-c2cccc(C)c2)c(-c2ccnc(NC(=O)c3ccccc3)c2)s1 [TAK-715]; conditions: top dose inferred
Protocol: as §1

| Cell Line | AUC (EX-527) | IC50 (EX-527) [µM] | AUC (YM201636) | IC50 (YM201636) [µM] | AUC (AZD6244) | IC50 (AZD6244) [µM] | AUC (TAK-715) | IC50 (TAK-715) [µM] |
| --- | --- | --- | --- | --- | --- | --- | --- | --- |
| AsPC-1 (pancreas, adherent) | 0.973 | > 20 | 0.859 | > 5.12 | 0.714 | 1.57 |  |  |
| CADO-ES1 (Ewing sarcoma, suspension) | 0.988 | > 20 | 0.882 | > 5.12 | 0.981 | > 4 |  |  |
| CHP-134 (neuroblastoma, suspension) | 0.98 | > 20 | 0.856 | > 5.12 |  |  |  |  |
| COR-L303 (small cell lung carcinoma, suspension) | 0.987 | > 20 | 0.876 | 4.8 |  |  |  |  |
| COR-L311 (small cell lung carcinoma, suspension) |  |  | 0.921 | > 5.12 |  |  |  |  |
| COR-L321 (lung, suspension) | 0.987 | > 20 | 0.896 | > 5.12 | 0.966 | > 4 |  |  |
| D-423MG (glioma, adherent) | 0.981 | > 20 | 0.882 | > 5.12 | 0.904 | > 4 |  |  |
| D-566MG (glioma, adherent) | 0.981 | > 20 | 0.92 | > 5.12 | 0.924 | > 4 |  |  |
| DOV13 (ovary, adherent) | 0.981 | > 20 | 0.91 | > 5.12 | 0.741 | 1.38 |  |  |
| EMC-BAC-1 (lung adenocarcinoma, adherent) | 0.969 | > 20 | 0.845 | 4.51 | 0.929 | > 4 |  |  |
| EMC-BAC-2 (lung adenocarcinoma, adherent) | 0.901 | > 20 | 0.907 | > 5.12 | 0.862 | > 4 |  |  |
| ESO26 (oesophagus, adherent) | 0.986 | > 20 | 0.837 | 3.16 | 0.967 | > 4 |  |  |
| ESO51 (oesophagus, semi-adherent) | 0.972 | > 20 | 0.901 | > 5.12 | 0.871 | > 4 |  |  |
| FLO-1 (oesophagus, adherent) | 0.975 | > 20 | 0.815 | 4.61 | 0.803 | 3.15 |  |  |
| HeLa (cervix, adherent) | 0.924 | > 20 | 0.974 | > 5.12 |  |  |  |  |
| Hey (ovary, adherent) | 0.985 | > 20 | 0.935 | > 5.12 | 0.725 | 1.04 |  |  |
| Hs746T (stomach, adherent) | 0.981 | > 20 | 0.954 | > 5.12 | 0.872 | > 4 |  |  |

| Cell Line | AUC (EX-527) | IC50 (EX-527) [µM] | AUC (YM201636) | IC50 (YM201636) [µM] | AUC (AZD6244) | IC50 (AZD6244) [µM] | AUC (TAK-715) | IC50 (TAK-715) [µM] |
| --- | --- | --- | --- | --- | --- | --- | --- | --- |
| JHOS-2 (ovary, adherent) | 0.983 | > 20 | 0.895 | > 5.12 | 0.673 | 0.828 |  |  |
| JHOS-3 (ovary, adherent) | 0.981 | > 20 | 0.873 | > 5.12 | 0.725 | 1.33 |  |  |
| KMS-11 (myeloma, suspension) | 0.99 | > 20 | 0.65 | 0.777 | 0.988 | > 4 |  |  |
| KYAE-1 (oesophagus, suspension) | 0.985 | > 20 | 0.677 | 1.06 | 0.924 | > 4 |  |  |
| NCC021 (kidney, adherent) | 0.985 | > 20 | 0.91 | > 5.12 | 0.966 | > 4 |  |  |
| NCI-H630 (large intestine, adherent) | 0.974 | > 20 | 0.925 | > 5.12 | 0.858 | 3.68 |  |  |
| NCI-H2023 (lung adenocarcinoma, adherent) | 0.981 | > 20 | 0.895 | > 5.12 | 0.921 | > 4 |  |  |
| OACM5-1 (oesophagus, semi-adherent) | 0.985 | > 20 | 0.46 | 0.245 | 0.976 | > 4 |  |  |
| OACp4C (oesophagus, adherent) | 0.982 | > 20 | 0.782 | 2.6 | 0.818 | 2.85 |  |  |
| SNU-175 (large intestine, suspension) | 0.984 | > 20 | 0.751 | 1.6 |  |  |  |  |
| YKG-1 (glioma, adherent, top dose 20 µM) |  |  |  |  |  |  | 0.927 | > 20 |
| YMB-1-E (breast, adherent) | 0.978 | > 20 | 0.86 | > 5.12 |  |  |  |  |
| YMB-1-E (breast, adherent, top dose 20 µM) |  |  |  |  |  |  | 0.96 | > 20 |
| YT (lymphoid neoplasm, suspension, top dose 20 µM) |  |  |  |  |  |  | 0.872 | 14.2 |
| huH-1 (liver, adherent, top dose 20 µM) |  |  |  |  |  |  | 0.975 | > 20 |
| no-10 (glioma, adherent, top dose 20 µM) |  |  |  |  |  |  | 0.965 | > 20 |
| no-11 (glioma, adherent, top dose 20 µM) |  |  |  |  |  |  | 0.967 | > 20 |
